# In paper PMC4336329 (PLoS ONE, 2015):
# In all, about 310,000 compounds went through this assay and about 14,000 (4.5%) showed an effect of 50% or more. Effects have a minus sign here. This is one part of the list.
# Target: human ether-à-go-go-related gene (hERG) potassium channel (human, UniProt Q12809)
# Experiment: primary screen, population patch clamp on CHO cells stably expressing hERG
# 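Note: peak tail current of the secondary pulse compared with the same well before compound.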
# human ether-à-go-go-related gene (hERG) potassium channel, sequence (Q12809 whole entry, looked up): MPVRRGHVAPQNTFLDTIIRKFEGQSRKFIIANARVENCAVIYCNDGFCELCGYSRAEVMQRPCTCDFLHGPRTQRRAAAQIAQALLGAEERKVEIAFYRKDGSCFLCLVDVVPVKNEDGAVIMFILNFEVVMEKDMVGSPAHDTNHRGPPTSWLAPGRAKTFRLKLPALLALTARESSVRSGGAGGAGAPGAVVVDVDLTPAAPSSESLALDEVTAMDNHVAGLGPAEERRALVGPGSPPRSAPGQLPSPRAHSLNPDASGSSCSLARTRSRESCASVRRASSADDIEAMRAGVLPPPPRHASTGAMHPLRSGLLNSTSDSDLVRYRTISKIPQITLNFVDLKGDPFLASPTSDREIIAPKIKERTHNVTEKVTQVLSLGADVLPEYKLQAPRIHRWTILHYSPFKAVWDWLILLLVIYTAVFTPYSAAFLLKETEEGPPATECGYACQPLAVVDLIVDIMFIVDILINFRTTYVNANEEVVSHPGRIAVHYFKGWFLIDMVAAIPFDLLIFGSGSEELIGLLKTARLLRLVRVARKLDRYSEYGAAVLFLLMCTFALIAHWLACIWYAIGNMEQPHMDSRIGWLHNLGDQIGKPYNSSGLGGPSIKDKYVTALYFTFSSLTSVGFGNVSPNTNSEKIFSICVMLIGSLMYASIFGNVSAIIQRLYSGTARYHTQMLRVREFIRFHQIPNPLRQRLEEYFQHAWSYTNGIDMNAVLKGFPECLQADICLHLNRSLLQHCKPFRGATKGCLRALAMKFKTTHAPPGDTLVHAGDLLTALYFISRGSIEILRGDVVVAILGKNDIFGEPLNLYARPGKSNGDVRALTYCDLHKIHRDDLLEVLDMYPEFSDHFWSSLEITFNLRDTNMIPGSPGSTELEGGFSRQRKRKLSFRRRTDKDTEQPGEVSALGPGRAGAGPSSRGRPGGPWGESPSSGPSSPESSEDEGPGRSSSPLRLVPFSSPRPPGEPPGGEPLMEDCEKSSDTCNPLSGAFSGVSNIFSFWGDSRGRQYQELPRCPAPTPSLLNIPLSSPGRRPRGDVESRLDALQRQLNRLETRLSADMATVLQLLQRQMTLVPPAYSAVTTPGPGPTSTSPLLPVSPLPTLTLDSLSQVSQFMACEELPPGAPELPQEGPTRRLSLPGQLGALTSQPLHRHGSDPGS
row,SMILES,"hERG current change (%, negative = inhibition) at 10uM"
1,COc1ccccc1CN1CC(C(=O)N(C)Cc2[nH]c3ccccc3c2C)CCC1=O (centres unmarked),-22.8%
2,CCC1=Nc2cc(C(=O)O)ccc2Sc2ccc(Cl)cc21,15%
3,CCN(CC)c1nc(-c2ccc(C(=O)NN)cc2)nc(-c2ccc(C(=O)NN)cc2)n1,17.3%
4,O=C(O)Cc1ccc(NS(=O)(=O)c2c(Cl)cccc2Cl)cc1,6.37%
5,Cc1cccc(N2C(S)=C(C#N)C(=O)NC2c2cccs2)c1 (centres unmarked),13%
6,CC(=O)NS(=O)(=O)c1ccc(NC(=O)C2c3ccccc3Oc3ccccc32)cc1,15.6%
7,CC(=O)c1ccc(NS(=O)(=O)c2ccc3c(c2)N(C(C)=O)CCO3)cc1,8.99%
8,CCOC(=O)C1(Cc2cccc(Cl)c2)CCCN(C(=O)c2cc(C)on2)C1 (centres unmarked),-9.8%
9,CN(C(=O)c1cccc(N2C(=O)C3C4C=CC(C4)C3C2=O)c1)C1CCCCC1 (centres unmarked),0.921%
10,O=C(CCNC(=O)c1ccc([N+](=O)[O-])cc1)Nc1nccs1,1.93%
11,CCCCOc1ccc(C(=O)NCC(=O)N(C)Cc2nc3ccccc3c(=O)[nH]2)cc1,-47.7%
12,O=P1(Oc2ccccc2)OCCCS1 (centres unmarked),18.6%
13,CCOC(=O)NC1(C(F)(F)F)C(=O)N(Cc2ccccc2)C2=C1C(=O)CC(C)(C)C2 (centres unmarked),20.9%
14,O=C(O)c1ccccc1C(=O)NCCCn1ccnc1,18.4%
15,O=S(=O)(Cc1ccccc1)Nc1ccc(F)cc1,7.05%
16,CCOc1ccc(NS(=O)(=O)c2cc(C(=O)N3CC(C)OC(C)C3)ccc2C)cc1 (centres unmarked),-0.0292%
17,COc1cccc(NC(=O)CN2C(=O)c3cccnc3Oc3ccc(Cl)cc32)c1,-7.75%
18,Nc1ccccc1C(=O)N/N=C1\C2CN3CCN(C2)CC1(c1ccccc1)C3,7.61%
19,CC1(C)CC(=O)c2c(oc3ccc(NS(=O)(=O)c4cccc5cccnc45)cc23)C1,-5.52%
20,COCCCNC(=S)N/N=C/c1ccc(OC)c(Br)c1,18.9%
21,Cc1ccc(S(=O)(=O)n2nc(OC(=O)c3c(-c4ccccc4Cl)noc3C)cc2N)cc1,16.3%
22,Cc1cccc(NC(=O)CSc2nccn2Cc2ccco2)c1C,-0.865%
23,O=C(NCc1ccc2c(c1)OCO2)C1CCN(S(=O)(=O)N2CCOCC2)CC1,-5.12%

row,SMILES,"hERG current change (%, negative = inhibition) at 10uM"
1,COc1ccc(C)cc1NC(=O)C1C2C=CC(C2)C1C(=O)O (centres unmarked),5.81%
2,CC1Cc2ccccc2N1C(=O)c1cnc2ccccn2c1=O (centres unmarked),-31.1%
3,O=C(O)c1ccc(N=Nc2c(O)ccc3ncccc23)cc1,13.2%
4,CCCN(CC1CC1)c1nc(N)c2c(N)nc(OC)cc2c1C#N,-10.4%
5,COc1ccccc1NS(=O)(=O)c1cccc(NC(=O)c2nn(C)c(=O)c3ccccc23)c1,-7.97%
6,CN(C(=O)C1CCCO1)c1nnc(-c2ccncc2)s1 (centres unmarked),4.14%
7,CN1CCN(CC#CC(C)(O)C2CC3C=CC2C3)CC1.Cl (centres unmarked),1.53%
8,O=C1NC(c2ccccc2Cl)=N/C1=C/c1ccco1,-8.95%
9,Cc1ccccc1OCC(=O)Nc1ccccc1C(=O)N1CCCCC1,-19.3%
10,COc1cccc(C2C(C#N)=C(N)N(N(C)C)C3=C2C(=O)CCC3)c1 (centres unmarked),-4.26%
11,Cc1cc(C)c(S(=O)(=O)Nc2ccc(C(N)=O)cc2)c(C)c1,4.13%
12,CN(C)c1ccc(NC(=O)c2ccncc2)c2ccccc12,-3.02%
13,O=c1[nH]nc(CNc2ccc(Cl)cc2Cl)c2ccccc12,11.5%
14,NS(=O)(=O)c1ccc(NNC(=O)c2cccs2)cc1,16.3%
15,CCOc1ccc(N(CC(=O)Nc2cccc(F)c2)S(=O)(=O)c2c(C)noc2C)cc1,-5.67%
16,COCCN(C/C=C/c1ccccc1)C/C=C/c1ccccc1,-69.4%
17,Cc1ccc2sc(NC(=O)c3cccc(N4C(=O)CCC4=O)c3)nc2c1C,13.3%
18,COc1ccnc(CN(C)C(=O)C2CCC(=O)N(CCN(C)C)C2)c1 (centres unmarked),17.5%
19,Cc1nnc(SCC2CCCO2)n1-c1ccccc1 (centres unmarked),9.97%
20,CCc1ccccc1NC(=O)CN(C)C(=O)CSc1nn(-c2ccccc2)c(=S)s1,-9.72%
21,COc1cc(C(=O)N2CCN(C(=O)CC(C)C)CC2)cc(OC)c1OC,-0.249%
22,O=C(O)CCN1C(=O)c2ccc(NC(=O)CSCc3ccccc3)cc2C1=O,-7.19%
23,COC(=O)[C@@H]1C[C@@H](c2ccccc2)[C@H](C)C1(C)C,1%

row,SMILES,"hERG current change (%, negative = inhibition) at 10uM"
1,Cc1ccc(S(=O)(=O)N2c3cc(C)ccc3OCC2C(C)(C)C)cc1 (centres unmarked),2.79%
2,COc1ccc(Nc2nnc(SCC(=O)NC(=O)Nc3ccc4c(c3)OCCO4)s2)cc1,15.7%
3,COc1ccc(N2C(=O)/C(=C/c3ccc([N+](=O)[O-])cc3)N=C2C)c(OC)c1,9.74%
4,C[C@H]1CCC[C@@H](O)CCC/C=C/c2cc(O)cc(O)c2C(=O)O1,2.04%
5,Cc1cc(C(=O)OCC(=O)N2c3ccccc3CC2C)c(C)o1 (centres unmarked),7.55%
6,S=C(Nc1ccc2[nH]ccc2c1)NC1CCCCC1,0.518%
7,CCOC(=O)C1(Cc2cccc(Cl)c2)CCCN(C(=O)c2cccc(C)n2)C1 (centres unmarked),-1.76%
8,C/C(=C\C(=O)O)C12CC3CC(CC(C3)C1)C2,6.61%
9,O.O=C(NC12CC3CC(CC(C3)C1)C2)c1cncc(O)c1,22.4%
10,COc1ccc(C(=O)Nc2cc(C)c(NC(=O)c3ccccc3OC)cn2)cc1,-6.52%
11,COC1=CCC2([N+](=O)[O-])CN(C)CC1([N+](=O)[O-])C2 (centres unmarked),10.3%
12,CCN(CC)S(=O)(=O)c1ccc2c(c1)nc(SC(C)C(=O)NCC1CCCO1)n2CC (centres unmarked),-1.12%
13,Cc1cc(C(=O)Nc2ccc(Cl)cc2)on1,39.9%
14,O=C(NCCC1=CCCCC1)C(=O)NCc1ccccc1,9.56%
15,Cc1nonc1OC(C)CNCCNc1ccc([N+](=O)[O-])cc1.Cl (centres unmarked),-55.2%
16,COc1ccc(CNS(=O)(=O)c2ccc3c(c2)NC(=O)CS3)cc1,-9.78%
17,CCOc1ccccc1C(=O)n1nc(C)cc1C,15.6%
18,CCCOc1ccccc1C1NC(=O)NC(C)=C1C(=O)OCc1ccccc1 (centres unmarked),6.23%
19,Cc1ccc(S(=O)(=O)N(CC(=O)N/N=C\c2cccs2)c2cccc3cccnc23)cc1,-10.4%
20,CCOc1c(Nc2ccc(C(C)C)cc2)c(=O)c1=O,-23.5%
21,CC(C)Oc1ccc(C(CC(=O)O)Cc2ccccc2)cc1 (centres unmarked),19.2%
22,Cc1cc(-n2nc(C)cc2C)nc(N)n1,-3.91%
23,COc1ccc(NC(=O)CCS(=O)(=O)c2ccc3c(c2)oc(=O)n3C)cc1,30.3%

row,SMILES,"hERG current change (%, negative = inhibition) at 10uM"
1,Cc1csc(NC(=O)c2cccc(S(=O)(=O)N3CCN(C)CC3)c2)n1,-1.48%
2,O=C1NCCNC(=O)c2ccccc2OCCOc2ccccc21,-6.78%
3,COC(=O)C(C)NC(=O)c1ccc(C(C)(C)C)cc1 (centres unmarked),-3.6%
4,Cc1cccc(NC(=O)CSc2nc3c(c(=O)[nH]2)CCCC3)c1C,-16%
5,CCOc1ccc(S(=O)(=O)N(CCO)CCO)cc1-c1nc2c(C(C)(C)C)nn(C)c2c(=O)[nH]1,-11.7%
6,O=C(NCc1ccncc1)c1ccc(NS(=O)(=O)c2ccc(F)cc2)cc1,-4.87%
7,O=C(c1cc(Cl)cc(Cl)c1)N1CCOCC1,12.2%
8,CSc1ccccc1NC(=O)c1ccccn1,-6.11%
9,COc1cc(C(=O)N2CCN(S(=O)(=O)c3cccs3)CC2)cc(OC)c1C,-12.1%
10,CCOC(=O)C1CCN(Cc2c(F)cccc2Cl)CC1,-13.7%
11,COc1ccc(NC(=O)CN(C)C(=O)c2cc(-c3ccncc3)nc3ccccc23)cc1,-41.6%
12,CCN(C(=O)COC(=O)CSc1ccc(C)c(C)c1)C1CCS(=O)(=O)C1 (centres unmarked),-49.8%
13,Cc1nn(CC(=O)Nc2ccccn2)c(C)c1Br,15.3%
14,Cc1sc(NC(=S)NC(=O)c2cccs2)nc1-c1ccc(CC(C)C)cc1,6.05%
15,O=C(O)Cc1sc(Nc2cccc3ccccc23)nc1-c1ccccc1,7.09%
16,Cc1ccc(C(=O)Nc2cccc(C(F)(F)F)c2)cc1NC(=O)c1ccno1,-67%
17,CCCCNC(=O)CCCn1c(=O)[nH]c2ccc(Br)cc2c1=O,-12%
18,Cc1cc2nnc(SCC(=O)N3CCCCC3)n2c(N)n1,11.7%
19,COc1cccc2cc(C(=O)C3=C(O)C(=O)N(CCN4CCOCC4)C3c3ccc(Cl)cc3)oc12 (centres unmarked),13.6%
20,COc1ccc(N2CCN(C(=O)C(CCSC)N=C3NS(=O)(=O)c4ccccc43)CC2)cc1 (centres unmarked),-17.4%
